{"source": "the supplement of paper PMC4604168 (melanoma cell lines)", "note": "This is one part of the list. Most values come without repeats; read them as rough.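 Note: cells treated in 1,536-well plates, then fixed and DAPI-stained, with nuclei counted from automated high-throughput microscope images.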", "data": [{"tested_on": "SkMel2", "experiment": "cell count relative to DMSO control; higher = more viable cells", "details": "library dose: standard library concentration; 72 h", "units": {"cell count": "%"}, "values": [{"smiles": "O=C(/C=C/c1cccnc1)NCCCCC1CCN(C(=O)c2ccccc2)CC1", "note": "+ O=C(Nc1ccccc1)c1cc([N+](=O)[O-])ccc1Cl [GW9662] (first compound 0.05 µM, partner dose 10 µM)", "cell count": 24.7}, {"smiles": "CC1(C)CCC(c2ccc(Cl)cc2)=C(CN2CCN(c3ccc(C(=O)NS(=O)(=O)c4ccc(N[C@H](CCN5CCOCC5)CSc5ccccc5)c(S(=O)(=O)C(F)(F)F)c4)cc3)CC2)C1", "note": "+ N#Cc1c(O)c2c(-c3ccc(-c4ccccc4O)cc3)csc2[nH]c1=O [A769662] (first compound 2 µM, partner dose 10 µM)", "cell count": 77.5}, {"smiles": "CC1(C)CCC(c2ccc(Cl)cc2)=C(CN2CCN(c3ccc(C(=O)NS(=O)(=O)c4ccc(N[C@H](CCN5CCOCC5)CSc5ccccc5)c(S(=O)(=O)C(F)(F)F)c4)cc3)CC2)C1", "note": "+ COc1cc2ncnc(Nc3ccc(Oc4ccccc4)cc3)c2cc1OC [SrcI1] (first compound 2 µM, partner dose 10 µM)", "cell count": 79.5}, {"smiles": "O=C(/C=C/c1cccnc1)NCCCCC1CCN(C(=O)c2ccccc2)CC1", "note": "+ N#Cc1c(O)c2c(-c3ccc(-c4ccccc4O)cc3)csc2[nH]c1=O [A769662] (first compound 0.05 µM, partner dose 10 µM)", "cell count": 36.9}, {"smiles": "CC1(C)CCC(c2ccc(Cl)cc2)=C(CN2CCN(c3ccc(C(=O)NS(=O)(=O)c4ccc(N[C@H](CCN5CCOCC5)CSc5ccccc5)c(S(=O)(=O)C(F)(F)F)c4)cc3)CC2)C1", "note": "+ CCCCCCCCc1ccc(CCC(N)(CO)CO)cc1 [fingolimod] (first compound 2 µM, partner dose 10 µM)", "cell count": 0.127}, {"smiles": "CC1(C)CCC(c2ccc(Cl)cc2)=C(CN2CCN(c3ccc(C(=O)NS(=O)(=O)c4ccc(N[C@H](CCN5CCOCC5)CSc5ccccc5)c(S(=O)(=O)C(F)(F)F)c4)cc3)CC2)C1", "note": "+ O=S(=O)(c1ccccc1)N(CC(F)(F)F)c1ccc(C(O)(C(F)(F)F)C(F)(F)F)cc1 [T0901317] (first compound 2 µM, partner dose 7 µM)", "cell count": 74.5}, {"smiles": "O=C(/C=C/c1cccnc1)NCCCCC1CCN(C(=O)c2ccccc2)CC1", "note": "+ CC(C)CCN1c2nc(Nc3cc(F)c(O)c(F)c3)ncc2N(C)C(=O)C1C [BID1870] (first compound 0.05 µM, partner dose 1 µM)", "cell count": 26.2}, {"smiles": "O=C(/C=C/c1cccnc1)NCCCCC1CCN(C(=O)c2ccccc2)CC1", "note": "+ Cc1cc([N+](=O)[O-])ccc1NS(=O)(=O)c1cc(Cl)ccc1Cl [FH535] (first compound 0.05 µM, partner dose 5 µM)", "cell count": 36.2}, {"smiles": "Cc1ccc(Nc2nccc(N(C)c3ccc4c(C)n(C)nc4c3)n2)cc1S(N)(=O)=O", "note": "[Pazopanib] + O=C(Nc1ccccc1)c1cc([N+](=O)[O-])ccc1Cl [GW9662] (first compound 2 µM, partner dose 10 µM)", "cell count": 95.5}, {"smiles": "Cc1ccc(Nc2nccc(N(C)c3ccc4c(C)n(C)nc4c3)n2)cc1S(N)(=O)=O", "note": "[Pazopanib] + COc1ccc(COc2ccc(Cc3cnc(N)nc3N)cc2OC)cc1 [GW2580] (first compound 2 µM, partner dose 5 µM)", "cell count": 90.9}]}, {"tested_on": "SkMel30", "experiment": "cell count relative to DMSO control; melanoma cells; higher = more viable cells", "details": "library dose: standard library concentration; 72 h", "units": {"cell count": "%"}, "values": [{"smiles": "Cc1ccc(Nc2nccc(N(C)c3ccc4c(C)n(C)nc4c3)n2)cc1S(N)(=O)=O", "note": "[Pazopanib] + CC(C)CCN1c2nc(Nc3cc(F)c(O)c(F)c3)ncc2N(C)C(=O)C1C [BID1870] (first compound 2 µM, partner dose 1 µM)", "cell count": 60.4}, {"smiles": "Cc1ccc(Nc2nccc(N(C)c3ccc4c(C)n(C)nc4c3)n2)cc1S(N)(=O)=O", "note": "[Pazopanib] + CCc1ccc(CCOc2ccc(CC3SC(=O)NC3=O)cc2)nc1 [pioglitazone] (first compound 2 µM, partner dose 10 µM)", "cell count": 85.6}, {"smiles": "O=C(/C=C/c1cccnc1)NCCCCC1CCN(C(=O)c2ccccc2)CC1", "note": "+ O=C1NC(=O)/C(=C/c2ccc(-c3ccc(F)cc3O)o2)S1 [AS252424] (first compound 0.05 µM, partner dose 5 µM)", "cell count": 126}, {"smiles": "O=C(/C=C/c1cccnc1)NCCCCC1CCN(C(=O)c2ccccc2)CC1", "note": "+ COc1ccc2c(c1)CCC1C2CCC2(C)C(NCCCCCCN3C(=O)C=CC3=O)CCC12 [U73122] (first compound 0.05 µM, partner dose 2 µM)", "cell count": 89.6}, {"smiles": "O=C(/C=C/c1cccnc1)NCCCCC1CCN(C(=O)c2ccccc2)CC1", "note": "+ CCN(CC)CCCCNc1ncc2cc(-c3cc(OC)cc(OC)c3)c(NC(=O)NC(C)(C)C)nc2n1 [PD173074] (first compound 0.05 µM, partner dose 0.5 µM)", "cell count": 97.6}, {"smiles": "CC1(C)CCC(c2ccc(Cl)cc2)=C(CN2CCN(c3ccc(C(=O)NS(=O)(=O)c4ccc(N[C@H](CCN5CCOCC5)CSc5ccccc5)c(S(=O)(=O)C(F)(F)F)c4)cc3)CC2)C1", "note": "+ O=C1NC(=O)/C(=C/c2ccc(-c3ccc(F)cc3O)o2)S1 [AS252424] (first compound 2 µM, partner dose 5 µM)", "cell count": 70}, {"smiles": "Cc1ccc(Nc2nccc(N(C)c3ccc4c(C)n(C)nc4c3)n2)cc1S(N)(=O)=O", "note": "[Pazopanib] + Oc1cc(-c2nc(-c3ccccc3)[nH]c2-c2ccncc2)ccc1Cl [L779450] (first compound 2 µM, partner dose 1 µM)", "cell count": 87}, {"smiles": "CC1(C)CCC(c2ccc(Cl)cc2)=C(CN2CCN(c3ccc(C(=O)NS(=O)(=O)c4ccc(N[C@H](CCN5CCOCC5)CSc5ccccc5)c(S(=O)(=O)C(F)(F)F)c4)cc3)CC2)C1", "note": "+ COc1ccc2c(c1)CCC1C2CCC2(C)C(NCCCCCCN3C(=O)C=CC3=O)CCC12 [U73122] (first compound 2 µM, partner dose 2 µM)", "cell count": 49.7}, {"smiles": "Cc1ccc(Nc2nccc(N(C)c3ccc4c(C)n(C)nc4c3)n2)cc1S(N)(=O)=O", "note": "[Pazopanib] + O=C1NC(=O)/C(=C/c2ccc(-c3ccc(F)cc3O)o2)S1 [AS252424] (first compound 2 µM, partner dose 5 µM)", "cell count": 99}, {"smiles": "O=C(/C=C/c1cccnc1)NCCCCC1CCN(C(=O)c2ccccc2)CC1", "note": "+ O=c1cc(-c2cccc3c2Sc2ccccc2S3)oc(N2CCOCC2)c1 [KU55933] (first compound 0.05 µM, partner dose 5 µM)", "cell count": 106}, {"smiles": "Cc1ccc(Nc2nccc(N(C)c3ccc4c(C)n(C)nc4c3)n2)cc1S(N)(=O)=O", "note": "[Pazopanib] + N#Cc1c(O)c2c(-c3ccc(-c4ccccc4O)cc3)csc2[nH]c1=O [A769662] (first compound 2 µM, partner dose 10 µM)", "cell count": 97.2}, {"smiles": "O=C(/C=C/c1cccnc1)NCCCCC1CCN(C(=O)c2ccccc2)CC1", "note": "+ Oc1cc(-c2nc(-c3ccccc3)[nH]c2-c2ccncc2)ccc1Cl [L779450] (first compound 0.05 µM, partner dose 1 µM)", "cell count": 89}, {"smiles": "CC1(C)CCC(c2ccc(Cl)cc2)=C(CN2CCN(c3ccc(C(=O)NS(=O)(=O)c4ccc(N[C@H](CCN5CCOCC5)CSc5ccccc5)c(S(=O)(=O)C(F)(F)F)c4)cc3)CC2)C1", "note": "+ O=C(Nc1ccccc1)c1cc([N+](=O)[O-])ccc1Cl [GW9662] (first compound 2 µM, partner dose 10 µM)", "cell count": 44.6}, {"smiles": "CC1(C)CCC(c2ccc(Cl)cc2)=C(CN2CCN(c3ccc(C(=O)NS(=O)(=O)c4ccc(N[C@H](CCN5CCOCC5)CSc5ccccc5)c(S(=O)(=O)C(F)(F)F)c4)cc3)CC2)C1", "note": "+ Nc1nc(F)nc2c1ncn2[C@@H]1O[C@H](CO)[C@@H](O)[C@@H]1O [fludarabine] (first compound 2 µM, partner dose 1 µM)", "cell count": 9.44}, {"smiles": "CC1(C)CCC(c2ccc(Cl)cc2)=C(CN2CCN(c3ccc(C(=O)NS(=O)(=O)c4ccc(N[C@H](CCN5CCOCC5)CSc5ccccc5)c(S(=O)(=O)C(F)(F)F)c4)cc3)CC2)C1", "note": "+ CC(C)CCN1c2nc(Nc3cc(F)c(O)c(F)c3)ncc2N(C)C(=O)C1C [BID1870] (first compound 2 µM, partner dose 1 µM)", "cell count": 37}, {"smiles": "Cc1ccc(Nc2nccc(N(C)c3ccc4c(C)n(C)nc4c3)n2)cc1S(N)(=O)=O", "note": "[Pazopanib] + COc1ccc2c(c1)CCC1C2CCC2(C)C(NCCCCCCN3C(=O)C=CC3=O)CCC12 [U73122] (first compound 2 µM, partner dose 2 µM)", "cell count": 95.7}, {"smiles": "CC1(C)CCC(c2ccc(Cl)cc2)=C(CN2CCN(c3ccc(C(=O)NS(=O)(=O)c4ccc(N[C@H](CCN5CCOCC5)CSc5ccccc5)c(S(=O)(=O)C(F)(F)F)c4)cc3)CC2)C1", "note": "+ COc1ccc(-c2ccc3c(N4CCOCC4)nc(N4C[C@@H](C)O[C@@H](C)C4)nc3n2)cc1CO [KU0063794] (first compound 2 µM, partner dose 0.1 µM)", "cell count": 55.7}, {"smiles": "CC1(C)CCC(c2ccc(Cl)cc2)=C(CN2CCN(c3ccc(C(=O)NS(=O)(=O)c4ccc(N[C@H](CCN5CCOCC5)CSc5ccccc5)c(S(=O)(=O)C(F)(F)F)c4)cc3)CC2)C1", "note": "+ CCN(CC)CCCCNc1ncc2cc(-c3cc(OC)cc(OC)c3)c(NC(=O)NC(C)(C)C)nc2n1 [PD173074] (first compound 2 µM, partner dose 0.5 µM)", "cell count": 63}, {"smiles": "CC1(C)CCC(c2ccc(Cl)cc2)=C(CN2CCN(c3ccc(C(=O)NS(=O)(=O)c4ccc(N[C@H](CCN5CCOCC5)CSc5ccccc5)c(S(=O)(=O)C(F)(F)F)c4)cc3)CC2)C1", "note": "+ Oc1cc(-c2nc(-c3ccccc3)[nH]c2-c2ccncc2)ccc1Cl [L779450] (first compound 2 µM, partner dose 1 µM)", "cell count": 60}]}]}
